In the supplement of paper PMC4967469:
Lines with a small IC50 respond at low doses; a fit beyond the top or the lowest dose is shown as a bound at that dose. AUC, from the same fit, is the share of area under the viability curve across the 256-fold dose range; it is 1 without any effect and falls as sensitivity rises. For some assays here: A top dose marked as inferred is not printed in the source and was worked back from the curve model. For some assays here: Drugs with an entry number were screened twice under separate entries, and the two screens often disagree.

Columns and labels:
Assay in all cases: Viability of human cancer cell lines after 72 h of drug (GDSC screen)
FTI-277 = compound: COC(=O)[C@H](CCSC)NC(=O)c1ccc(NC[C@@H](N)CS)cc1-c1ccccc1 [FTI-277]; conditions: top dose 1.024 µM; top dose inferred
Method: (§1)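 Human cancer cell lines in 384-well plates, medium with 10% serum, drug for 72 h over a 256-fold dose range (nine 2-fold or five 4-fold steps up to the top dose). Adherent lines were fixed and stained with the nucleic acid dye Syto60, suspension lines read with resazurin; signal relative to control wells, capped at 0 and 100%. One two-parameter sigmoid per drug and line, fitted in a mixed model over all curves with the slope shared within a line.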

CGP-60474 = compound: OCCCNc1cc(-c2ccnc(Nc3cccc(Cl)c3)n2)ccn1 [CGP-60474]; conditions: top dose 0.256 µM; top dose inferred
Method: as §1

AMG-706 = compound: CC1(C)CNc2cc(NC(=O)c3cccnc3NCc3ccncc3)ccc21 [AMG-706]; conditions: top dose 2 µM; top dose inferred
Method: as §1

JNK Inhibitor VIII = compound: CCOc1nc(NC(=O)Cc2cc(OC)ccc2OC)cc(N)c1C#N [JNK Inhibitor VIII]; conditions: top dose 10 µM; top dose inferred
Method: as §1

YM155 = compound: COCC[n+]1c2c(n(Cc3cnccn3)c1C)C(=O)c1ccccc1C2=O [YM155]; conditions: top dose 5.12 µM
Method: as §1

SB-715992 = compound: Cc1ccc(C(=O)N(CCCN)[C@@H](c2nc3cc(Cl)ccc3c(=O)n2Cc2ccccc2)C(C)C)cc1 [SB-715992]; conditions: top dose 0.128 µM; top dose inferred
Method: as §1

NSC-207895 = compound: CN1CCN(c2ccc([N+](=O)[O-])c3no[n+]([O-])c23)CC1 [NSC-207895]; conditions: top dose 20 µM; top dose inferred
Method: as §1

Belinostat = compound: O=C(/C=C/c1cccc(S(=O)(=O)Nc2ccccc2)c1)NO [Belinostat]; conditions: top dose 20 µM; top dose inferred
Method: as §1

Docetaxel = compound: CC(=O)O[C@@]12CO[C@@H]1C[C@H](O)[C@@]1(C)C(=O)[C@H](O)C3=C(C)[C@@H](OC(=O)[C@H](O)[C@@H](NC(=O)OC(C)(C)C)c4ccccc4)C[C@@](O)([C@@H](OC(=O)c4ccccc4)[C@H]21)C3(C)C [Docetaxel]; conditions: top dose 0.0125 µM
Method: as §1

JQ1 = compound: Cc1sc2c(c1C)C(c1ccc(Cl)cc1)=N[C@@H](CC(=O)OC(C)(C)C)c1nnc(C)n1-2 [JQ1]
Method: as §1

Cyclopamine = compound: CC1=C2C[C@H]3[C@@H](CC=C4C[C@@H](O)CC[C@@]43C)[C@@H]2CC[C@]12O[C@@H]1C[C@H](C)CN[C@H]1[C@H]2C [Cyclopamine]; conditions: top dose 16 µM; top dose inferred
Method: as §1

JNJ-26854165 = compound: c1ccc2c(CCNc3ccc(Nc4ccncc4)cc3)c[nH]c2c1 [JNJ-26854165]; conditions: top dose 10 µM
Method: as §1

OSI-906 = compound: C[C@]1(O)C[C@@H](c2nc(-c3ccc4ccc(-c5ccccc5)nc4c3)c3c(N)nccn32)C1 [OSI-906]; conditions: top dose 2.56 µM; top dose inferred
Method: as §1

[1] = top dose 1 µM, screen: GDSC drug entry 1218, top dose inferred
[2] = top dose 2.56 µM, screen: GDSC drug entry 163

Cell Line | AUC (FTI-277) | IC50 (FTI-277) | AUC (CGP-60474) | IC50 (CGP-60474) | AUC (AMG-706) | IC50 (AMG-706) | AUC (JNK Inhibitor VIII) | IC50 (JNK Inhibitor VIII) | AUC (YM155) | IC50 (YM155) | AUC (SB-715992) | IC50 (SB-715992) | AUC (NSC-207895) | IC50 (NSC-207895) | AUC (Belinostat) | IC50 (Belinostat) | AUC (Docetaxel) | IC50 (Docetaxel) | AUC (JQ1; [1]) | IC50 (JQ1; [1]) | AUC (JQ1; [2]) | IC50 (JQ1; [2]) | AUC (Cyclopamine) | IC50 (Cyclopamine) | AUC (JNJ-26854165) | IC50 (JNJ-26854165) | AUC (OSI-906) | IC50 (OSI-906)
KY821 (leukaemia, suspension) | 0.992 | > 1020 nM | 0.764 | 81.8 nM | 0.992 | > 2000 nM | 0.989 | > 10000 nM | 0.028 | < 20 nM | 0.944 | > 128 nM | 0.966 | > 20000 nM | 0.408 | 726 nM | 0.925 | > 12.5 nM | 0.991 | > 1000 nM | 0.99 | > 2560 nM | 0.967 | > 16000 nM | 0.969 | > 10000 nM | 0.992 | > 2560 nM
HAL-01 (lymphoblastic leukaemia, suspension) | 0.986 | > 1020 nM | 0.71 | 57.8 nM | 0.985 | > 2000 nM | 0.987 | > 10000 nM | 0.633 | 711 nM | 0.806 | 56.2 nM | 0.904 | > 20000 nM | 0.169 | 146 nM | 0.989 | > 12.5 nM | 0.677 | 183 nM | 0.623 | 335 nM | 0.972 | > 16000 nM | 0.821 | 4940 nM | 0.966 | > 2560 nM
GOTO (neuroblastoma, adherent) | 0.974 | > 1020 nM | 0.749 | 93.1 nM | 0.781 | 949 nM | 0.808 | 6080 nM | 0.134 | < 20 nM | 0.93 | > 128 nM | 0.882 | > 20000 nM | 0.509 | 1330 nM | 0.698 | 3.06 nM | 0.946 | > 1000 nM | 0.754 | 970 nM | 0.981 | > 16000 nM | 0.809 | 6130 nM | 0.944 | > 2560 nM
NCI-H720 (lung carcinoid, suspension) | 0.992 | > 1020 nM | 0.98 | > 256 nM | 0.991 | > 2000 nM | 0.984 | > 10000 nM | 0.661 | 860 nM | 0.961 | > 128 nM | 0.974 | > 20000 nM | 0.942 | > 20000 nM | 0.875 | 10.5 nM | 0.987 | > 1000 nM | 0.992 | > 2560 nM | 0.992 | > 16000 nM | 0.992 | > 10000 nM | 0.992 | > 2560 nM
GRANTA-519 (B-cell lymphoma, suspension) | 0.99 | > 1020 nM | 0.851 | 167 nM | 0.991 | > 2000 nM | 0.99 | > 10000 nM | 0.035 | < 20 nM | 0.754 | 39.2 nM | 0.99 | > 20000 nM | 0.605 | 2340 nM | 0.891 | 12 nM | 0.984 | > 1000 nM | 0.954 | > 2560 nM | 0.987 | > 16000 nM | 0.936 | > 10000 nM | 0.991 | > 2560 nM
TE-6 (oesophagus, adherent) | 0.986 | > 1020 nM | 0.885 | > 256 nM | 0.967 | > 2000 nM | 0.985 | > 10000 nM | 0.421 | 187 nM | 0.985 | > 128 nM | 0.932 | > 20000 nM | 0.985 | > 20000 nM | 0.865 | > 12.5 nM | 0.985 | > 1000 nM | 0.86 | > 2560 nM | 0.983 | > 16000 nM | 0.896 | > 10000 nM | 0.986 | > 2560 nM
LAMA-84 (chronic myeloid leukaemia, suspension) | 0.985 | > 1020 nM | 0.867 | 238 nM | 0.98 | > 2000 nM | 0.967 | > 10000 nM | 0.211 | 44.6 nM | 0.752 | 42.9 nM | 0.922 | > 20000 nM | 0.37 | 543 nM | 0.94 | > 12.5 nM | 0.977 | > 1000 nM | 0.813 | 1410 nM | 0.899 | > 16000 nM | 0.826 | 6170 nM | 0.966 | > 2560 nM
PF-382 (T-cell lymphoblastic leukaemia, suspension) | 0.984 | > 1020 nM | 0.781 | 92.2 nM | 0.98 | > 2000 nM | 0.981 | > 10000 nM | 0.029 | < 20 nM | 0.5 | 8 nM | 0.885 | 17100 nM | 0.158 | 135 nM | 0.978 | > 12.5 nM | 0.99 | > 1000 nM | 0.596 | 283 nM | 0.938 | > 16000 nM | 0.985 | > 10000 nM | 0.984 | > 2560 nM
